Data from the antibiotic and cytotoxicity screens of Wong et al. (2023).
The other results are listed elsewhere or left out.

system: HSkMC (human skeletal muscle cells); test: cytotoxicity call (relative viability < 0.9); details: 10 µM

SMILES	cytotoxicity call
O=C(Nc1ccc2c(c1)[C@H]1C[C@H](CC(=O)N3CCc4ccccc4C3)O[C@@H](CO)[C@H]1O2)C1CCOCC1	inactive
C[C@@H]1CN([C@@H](C)CO)C(=O)c2cc(NC(=O)c3ccccc3)ccc2O[C@@H](C)CCCCO[C@@H]1CN(C)C(=O)C1CCCCC1	inactive
COc1cccc(-c2ccc3c(c2)O[C@H](CN(C)Cc2cncnc2)[C@H](C)CN([C@@H](C)CO)S3(=O)=O)c1	inactive
C[C@H]1CCCCO[C@@H](CN(C)Cc2ccc(C(F)(F)F)cc2)[C@@H](C)CN([C@@H](C)CO)C(=O)c2cc(NC(=O)CCCN(C)C)ccc2O1	inactive
CCNC(=O)C[C@@H]1CC[C@@H](NC(=O)C2CC2)[C@@H](CO)O1	inactive
COc1cc2c(cc1OC)-c1onc(-c3ccc(OCCO[Si](C(C)C)(C(C)C)C(C)C)cc3)c1CCCN(C[C@@H](C)OC(=O)NCCCCCC(=O)NO)CC2	inactive
CN(C)CCCNC(=O)C[C@H]1CC[C@@H]2[C@@H](COc3ccc(NC(=O)c4cccc(F)c4)cc3C(=O)N2C)O1	inactive
C[C@H](CO)N1C[C@H](C)[C@@H](CN(C)CC2CC2)Oc2ccc(NS(=O)(=O)c3ccccc3)cc2C1=O	inactive
C[N+](C)(C)CCCC[C@@H]1NC(=O)[C@@H]2C[C@H](C(=O)NCc3ccc(F)cc3)[C@H](c3ccc(O)cc3)N2C1=O	inactive

system: HepG2; test: cytotoxicity call (relative viability < 0.9); details: 10 µM

SMILES	cytotoxicity call
Cc1ccc(S(=O)(=O)N[C@H]2CC[C@@H](CC(=O)N3CCC(Cc4ccccc4)CC3)O[C@H]2CO)cc1	inactive
O=C(O)C1OC(Oc2cc3oc(-c4ccccc4)cc(=O)c3c(O)c2O)C(O)C(O)C1O (centres undefined)	inactive
O=C(O)CN(CC(=O)O)Cc1cc2c(-c3ccccc3C(=O)O)c3cc(CN(CC(=O)O)CC(=O)O)c(=O)cc-3oc2cc1O	inactive
O=C1O[C@H](c2ccccc2)[C@H](c2ccccc2)N2[C@H]1[C@@H](C(=O)N1CCCCCCC1)[C@]1(C(=O)Nc3ccc(C#CC4=CCCCC4)cc31)[C@H]2c1ccccc1OCCO	inactive
Cc1cc(C(=O)Nc2cccc3c2O[C@@H](CN(C)S(C)(=O)=O)[C@H](C)CN([C@@H](C)CO)C3=O)n(C)n1	inactive
COc1ccc(OC)c(CCNC(=O)CN)c1	inactive
COc1ccc(S(=O)(=O)Nc2ccc3c(c2)C(=O)N([C@H](C)CO)C[C@@H](C)[C@H](CN(C)C(=O)NC(C)C)O3)cc1	inactive
Cc1cc(C(=O)Nc2cccc3c2O[C@H](CN(C)Cc2ccc4c(c2)OCO4)[C@@H](C)CN([C@H](C)CO)C3=O)n(C)n1	inactive
Cc1ccc2ccccc2n1	inactive
Cc1ccc(S(=O)(=O)N(C)C[C@H]2Oc3ccc(NC(=O)c4ccncc4)cc3CC(=O)N([C@H](C)CO)C[C@@H]2C)cc1	inactive
COc1c(OCCCN2CCOCC2)ccc2c1N=C(NC(=O)c1cnc(N)nc1)N1CCN=C21	inactive
O=C1CNc2cc(C(=O)O)ccc2N1	inactive
NNC(=O)CS(=O)(=O)c1ccc(C(F)(F)F)cn1	inactive
COc1ccc(S(=O)(=O)N(C)C[C@H]2Oc3ccc(NC(=O)c4ccncc4)cc3CC(=O)N([C@H](C)CO)C[C@H]2C)cc1	inactive
C[C@@H]1CCCCO[C@@H](CN(C)S(=O)(=O)c2ccccc2)[C@@H](C)CN([C@@H](C)CO)C(=O)c2cc(NC(=O)c3ccccc3)ccc2O1	inactive
Cc1noc(C)c1NC(=O)Nc1ccc2c(c1)C(=O)N([C@@H](C)CO)C[C@H](C)[C@@H](CN(C)CC1CCCCC1)OCCCC[C@H](C)O2	inactive
C[C@@H]1CN([C@@H](C)CO)C(=O)c2cc(NC(=O)C3CC3)ccc2O[C@@H]1CN(C)Cc1ccc(-c2ccccc2)cc1	inactive
COCC#Cc1cnc2c(c1)C(=O)N([C@@H](C)CO)C[C@H](C)[C@@H](CN(C)C(C)=O)O2	inactive
CC(C)(C)c1csc(-c2ccc(-c3cccs3)s2)n1	inactive
C[C@H](CO)N1C[C@H](C)[C@H](CN(C)C(=O)Cc2ccccn2)Oc2cc(-c3cccc(C(=O)N(C)C)c3)ccc2S1(=O)=O	inactive

SMILES	cytotoxicity call
C[C@@H]1CCCCO[C@H](CN(C)S(=O)(=O)c2ccc(Cl)cc2)[C@@H](C)CN([C@@H](C)CO)C(=O)c2cc(NC(=O)c3ccccc3)ccc2O1	inactive
Cc1cccc(NC(=O)Nc2ccc3c(c2)C(=O)N(C)[C@H]2CC[C@@H](CC(=O)NCc4ccccc4Cl)O[C@H]2CO3)c1	inactive
C[C@@H]1CCCCO[C@@H](CN(C)C(=O)NC2CCCCC2)[C@@H](C)CN([C@H](C)CO)C(=O)c2cc(NC(=O)Nc3ccc4c(c3)OCO4)ccc2O1	inactive
C[C@@H]1CN([C@H](C)CO)C(=O)Cc2cc(NC(=O)Nc3ccc(C(F)(F)F)cc3)ccc2O[C@@H]1CN(C)C(=O)Nc1ccc(F)cc1	active
C=CCN1C(=O)[C@@]2(O[C@@H](CCO)[C@H]([Si](C)(C)c3ccc(OC)cc3)[C@H]2C)c2cc(N(C=O)c3ccccc3)ccc21	active
CO[C@H]1CN(C)C(=O)c2ccc(NC(=O)Nc3ccccc3F)cc2OC[C@@H](C)N(Cc2ccccc2C(=O)O)C[C@@H]1C	inactive
COc1ccc(NC(=O)N(C)C[C@@H]2Oc3ccc(NS(=O)(=O)c4cn(C)cn4)cc3C(=O)N([C@@H](C)CO)C[C@H]2C)cc1	inactive
CN1CCN(C(=O)C[C@H]2C[C@@H]3c4cc(NS(=O)(=O)c5ccc(F)cc5)ccc4O[C@@H]3[C@H](CO)O2)CC1	inactive
C[C@@H]1CN([C@@H](C)CO)C(=O)c2cc(NS(=O)(=O)c3cn(C)cn3)ccc2O[C@@H]1CN(C)Cc1ccc(C(=O)O)cc1	inactive
CC(C)(C)S(=O)N1Cc2cc(C(=O)Nc3ccc(-c4ccccc4)cc3)nc(-c3cccc(-c4cccc(F)c4)c3)c2[C@@H]1CCO (some centres undefined)	active
C[C@@H]1CCCCO[C@@H](CN(C)S(=O)(=O)c2ccc(F)cc2)[C@@H](C)CN([C@H](C)CO)C(=O)c2cc(NC(=O)Nc3ccc(C(F)(F)F)cc3)ccc2O1	inactive
O=C(Nc1ccc2c(c1)[C@H]1C[C@H](CC(=O)N3CCc4ccccc4C3)O[C@@H](CO)[C@H]1O2)C1CCOCC1	inactive
C[C@@H]1CN([C@@H](C)CO)C(=O)c2cc(NC(=O)c3ccccc3)ccc2O[C@@H](C)CCCCO[C@@H]1CN(C)C(=O)C1CCCCC1	inactive
COc1cccc(-c2ccc3c(c2)O[C@H](CN(C)Cc2cncnc2)[C@H](C)CN([C@@H](C)CO)S3(=O)=O)c1	inactive
C[C@H]1CCCCO[C@@H](CN(C)Cc2ccc(C(F)(F)F)cc2)[C@@H](C)CN([C@@H](C)CO)C(=O)c2cc(NC(=O)CCCN(C)C)ccc2O1	inactive
CCNC(=O)C[C@@H]1CC[C@@H](NC(=O)C2CC2)[C@@H](CO)O1	inactive
COc1cc2c(cc1OC)-c1onc(-c3ccc(OCCO[Si](C(C)C)(C(C)C)C(C)C)cc3)c1CCCN(C[C@@H](C)OC(=O)NCCCCCC(=O)NO)CC2	active
CN(C)CCCNC(=O)C[C@H]1CC[C@@H]2[C@@H](COc3ccc(NC(=O)c4cccc(F)c4)cc3C(=O)N2C)O1	inactive
C[C@H](CO)N1C[C@H](C)[C@@H](CN(C)CC2CC2)Oc2ccc(NS(=O)(=O)c3ccccc3)cc2C1=O	inactive
C[N+](C)(C)CCCC[C@@H]1NC(=O)[C@@H]2C[C@H](C(=O)NCc3ccc(F)cc3)[C@H](c3ccc(O)cc3)N2C1=O	inactive
